Experimental data from the supplement of paper PMC9446081.
Among all 39,000 compounds or so, about 220 (0.56%) showed activity. This is one part of the list.

test system: Escherichia coli K-12 BW25113; assay: relative growth (OD600 normalised to plate interquartile mean) (fraction); higher = less growth inhibition, active = 0.2 or less; conditions: 50 µM; LB; incubation time: overnight (16-24 h)
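Also: static incubation at 37 °C against the wild-type strain, values averaged over two biological replicates.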

Compound | relative growth
Cc1ccc(S(=O)(=O)NCC[C@H]2CC[C@@H](NS(=O)(=O)c3ccccc3Cl)[C@@H](CO)O2)cc1 | inactive: 1
C[C@@H]1CN([C@H](C)CO)C(=O)c2cc(NC(=O)C3CCCCC3)ccc2O[C@@H](C)CCCCO[C@@H]1CN(C)C(=O)NC1CCCCC1 | inactive: 0.995
C[C@@H]1CN([C@@H](C)CO)C(=O)c2cccc(NC(=O)NC3CCCCC3)c2O[C@H]1CN(C)Cc1ccc(-c2ccccc2)cc1 | inactive: 0.97
C[C@H]1CN([C@@H](C)CO)C(=O)Cc2cc(NC(=O)Cn3cnnn3)ccc2O[C@H]1CN(C)Cc1ccc(C(=O)Nc2ccccc2N)cc1 | inactive: 0.978
C[C@@H]1CN([C@@H](C)CO)C(=O)c2cc(NC(=O)c3ccncc3)ccc2O[C@H]1CN(C)S(=O)(=O)c1ccc(F)cc1 | inactive: 1.01
C[C@@H]1CN([C@H](C)CO)C(=O)CCCn2cc(nn2)CO[C@@H]1CN(C)C(=O)c1ccc(N2CCN(C)CC2)cc1 | inactive: 0.999
C[C@H]1CCCCO[C@H](CN(C)S(=O)(=O)c2ccc(F)cc2)[C@@H](C)CN([C@@H](C)CO)C(=O)c2cc(NC(=O)CCC(F)(F)F)ccc2O1 | inactive: 1
Cc1noc(C)c1S(=O)(=O)N(C)C[C@H]1Oc2c(NC(=O)c3cnccn3)cccc2C(=O)N([C@@H](C)CO)C[C@H]1C | inactive: 1.01
Cc1cc(C)c(C)c(C(=O)O)c1C | inactive: 0.975
Cc1noc(C)c1NC(=O)N[C@H]1C=C[C@H](CC(=O)N2CCN(C)CC2)O[C@@H]1CO | inactive: 0.984
Cc1ccc(S(=O)(=O)N2C[C@@H](O)COC[C@H]3O[C@@H](CC(=O)NCc4ccc5c(c4)OCO5)CC[C@@H]32)cc1 | inactive: 1.01
CNC(=O)C[C@H]1NCCNC1=O | inactive: 0.978
CN1CCN(C(=O)C[C@@H]2CC[C@@H]3[C@H](COC[C@H](O)CN3C(=O)Nc3ccc4c(c3)OCO4)O2)CC1 | inactive: 0.974
COc1ccc(NC(=O)N(C)C[C@H]2OCCCC[C@@H](C)Oc3ccc(NC(=O)Nc4ccc(C(F)(F)F)cc4)cc3C(=O)N([C@H](C)CO)C[C@@H]2C)cc1 | inactive: 1.01
C[C@H](CO)N1C[C@H](C)[C@@H](CN(C)C(=O)Nc2cccc3ccccc23)Oc2ccc(NS(=O)(=O)c3ccc(Cl)cc3)cc2CC1=O | inactive: 1.03
O=C(C[C@H]1CC[C@H]2[C@@H](COC[C@@H](O)CN2S(=O)(=O)c2ccc(F)cc2)O1)NCc1ccc(Cl)c(Cl)c1 | inactive: 0.999
COc1cc2c(cc1OC)-c1c(oc3cc4c(cc3c1=O)CCO4)CO2 | inactive: 0.963
C[C@@H]1CCCCO[C@@H](CN(C)C(=O)C2CCCCC2)[C@@H](C)CN([C@@H](C)CO)C(=O)c2cc(NS(=O)(=O)c3ccc(F)cc3)ccc2O1 | inactive: 1
C[C@@H]1CCCCO[C@H](CN(C)C(=O)Nc2ccccc2)[C@H](C)CN([C@@H](C)CO)C(=O)c2cc(NC(=O)C3CCCCC3)ccc2O1 | inactive: 1.04

Compound | relative growth
COc1ccccc1-c1cccc(-c2nc(C(=O)NCc3ccncc3)cc3c2[C@@H](CCO)N([S@](=O)C(C)(C)C)C3)c1 | inactive: 1
C[C@@H]1CN([C@H](C)CO)C(=O)c2cc(NS(C)(=O)=O)ccc2O[C@H]1CN(C)S(=O)(=O)c1cccs1 | inactive: 1.02
Cc1ccc(S(=O)(=O)N(C)C[C@@H]2Oc3ncc(Br)cc3C(=O)N([C@H](C)CO)C[C@H]2C)cc1 | inactive: 0.999
Cc1noc(C)c1NC(=O)Nc1cccc2c1O[C@@H](CN(C)Cc1ccc(Cl)c(Cl)c1)[C@@H](C)CN([C@H](C)CO)C2=O | inactive: 0.998
COCC(=O)N1C[C@@H](C)[C@@H](OC)CN(C)C(=O)c2ccc(NC(=O)Nc3ccccc3)cc2OC[C@H]1C | inactive: 1
O=C(/C=C/c1ccc(O)c(O)c1)O[C@H]1[C@H](O)[C@@H](O)[C@H](OCCc2ccc(O)c(O)c2)O[C@@H]1CO | inactive: 0.971
O=C(C[C@H]1C[C@@H]2c3cc(NC(=O)C4CCOCC4)ccc3O[C@@H]2[C@H](CO)O1)NCc1cc(F)ccc1F | inactive: 0.982
Cc1ccc(S(=O)(=O)N(C)C[C@@H]2OCCCC[C@H](C)Oc3ccc(NC(=O)Nc4ccccc4)cc3C(=O)N([C@@H](C)CO)C[C@H]2C)cc1 | inactive: 1.02
C[C@@H]1CN([C@@H](C)CO)C(=O)c2cc(NS(=O)(=O)c3ccc(Cl)cc3)ccc2O[C@@H](C)CCCCO[C@H]1CN(C)C(=O)C1CCCCC1 | inactive: 1.05
CC(C)NC(=O)Nc1ccc2c(c1)CC(=O)N([C@@H](C)CO)C[C@@H](C)[C@@H](CN(C)S(=O)(=O)c1ccc(Cl)cc1)O2 | inactive: 1.02
COc1ccc(CCNC(=O)Nc2nn(Cc3ccc(COc4cccc(OC)c4)cc3)c3ccccc23)cc1 | inactive: 1.01
CO/N=C(\C(=O)N[C@@H]1C(=O)N2C(C(=O)O)=C(C)CS[C@H]12)c1csc(N)n1 | active: 0.0368
C[C@H]1CN([C@@H](C)CO)C(=O)c2cc(Br)cnc2O[C@H]1CN(C)S(=O)(=O)c1ccccc1F | inactive: 1.04
C[C@@H]1CN([C@H](C)CO)C(=O)Cc2cc(NS(=O)(=O)c3cn(C)cn3)ccc2O[C@H]1CN(C)S(=O)(=O)c1cccs1 | inactive: 1.02
COc1ccc(S(=O)(=O)Nc2ccc3c(c2)C(=O)N([C@H](C)CO)C[C@@H](C)[C@H](CN(C)Cc2ccc(C(F)(F)F)cc2)OCCCC[C@@H](C)O3)cc1 | inactive: 0.878
CC(C)NC(=O)Nc1ccc2c(c1)CC(=O)N([C@H](C)CO)C[C@@H](C)[C@H](CN(C)C(=O)Nc1ccc3c(c1)OCO3)O2 | inactive: 0.977
CS(=O)(=O)Nc1ccc2c(c1)[C@@H]1C[C@@H](CC(=O)NCC3CC3)O[C@H](CO)[C@@H]1O2 | inactive: 0.974
CN1CCN(CC(=O)N2c3ccccc3C(=O)Nc3cccnc32)CC1.Cl.Cl | inactive: 1.08
Cc1noc(C)c1NC(=O)Nc1ccc2c(c1)C(=O)N([C@H](C)CO)C[C@@H](C)[C@@H](CN(C)S(=O)(=O)c1ccc(Cl)cc1)OCCCC[C@H](C)O2 | inactive: 0.98
